Reference: paper PMC6570896
These are yes or no findings as the source states them, for the method shown. Binding seen in cells or lysates may run through a third protein. Some results given as binding are weak or reduced against the parent protein; the word gives no strength.

By UniProt entry, the sequences of proteins in these tests, tags left out. Where a name states a change or a piece, a line headed by the entry shows the natural chain unless it says otherwise. Residues count along the entry.
UniProt Q9FXM3: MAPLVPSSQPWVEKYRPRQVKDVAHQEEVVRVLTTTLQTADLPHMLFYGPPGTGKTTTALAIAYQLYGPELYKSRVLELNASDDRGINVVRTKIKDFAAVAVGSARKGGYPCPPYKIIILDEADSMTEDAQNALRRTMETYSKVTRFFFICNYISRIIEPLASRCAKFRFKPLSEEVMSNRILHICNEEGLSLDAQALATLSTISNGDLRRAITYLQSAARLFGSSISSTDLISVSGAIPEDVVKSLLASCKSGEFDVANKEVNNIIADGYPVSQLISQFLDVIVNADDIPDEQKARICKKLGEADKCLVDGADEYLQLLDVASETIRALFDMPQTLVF
OsRFC2 with a deletion of 100 aa in its C-terminal (rice (Oryza sativa)): residues 1-239 of Q9FXM3
OsRFC2 Δ140–339 (rice (Oryza sativa)): residues 1-139 of Q9FXM3
UniProt P17070: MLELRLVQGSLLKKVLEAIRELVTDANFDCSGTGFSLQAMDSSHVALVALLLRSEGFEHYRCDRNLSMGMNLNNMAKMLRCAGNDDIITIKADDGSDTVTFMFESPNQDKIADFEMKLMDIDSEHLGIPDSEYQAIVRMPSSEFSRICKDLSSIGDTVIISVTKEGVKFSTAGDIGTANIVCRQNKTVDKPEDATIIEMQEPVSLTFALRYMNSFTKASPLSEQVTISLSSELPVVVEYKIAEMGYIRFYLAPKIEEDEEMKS
UniProt Q9ZW35: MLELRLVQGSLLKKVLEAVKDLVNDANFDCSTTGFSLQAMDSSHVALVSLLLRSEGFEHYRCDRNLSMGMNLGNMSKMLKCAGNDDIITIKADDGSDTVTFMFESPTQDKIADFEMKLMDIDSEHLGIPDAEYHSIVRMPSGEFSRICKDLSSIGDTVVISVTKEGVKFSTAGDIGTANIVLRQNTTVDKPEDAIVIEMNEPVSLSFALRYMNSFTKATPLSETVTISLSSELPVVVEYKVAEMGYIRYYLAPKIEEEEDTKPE
UniProt Q9M7Q7: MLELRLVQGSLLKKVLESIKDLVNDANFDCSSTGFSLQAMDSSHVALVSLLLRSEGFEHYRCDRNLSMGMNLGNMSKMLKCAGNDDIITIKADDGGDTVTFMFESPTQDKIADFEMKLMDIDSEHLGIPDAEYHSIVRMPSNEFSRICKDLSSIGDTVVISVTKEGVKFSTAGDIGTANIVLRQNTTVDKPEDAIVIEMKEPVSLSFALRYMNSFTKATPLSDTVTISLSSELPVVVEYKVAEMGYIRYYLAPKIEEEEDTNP

Columns and labels:
Test in all cases: split reporter; BiFC: fusions to YFP^N (1-155 aa) and YFP^C (156-239 aa) co-expressed transiently in Nicotiana benthamiana leaf epidermal cells; YFP seen by confocal microscopy
[1] = target: OsRFC2 Δ140–339 (rice (Oryza sativa)) (UniProt Q9FXM3)
[2] = target: T1, OsRFC5 Δ1–300 (rice (Oryza sativa)) (UniProt Q852K3)
T1 sequence: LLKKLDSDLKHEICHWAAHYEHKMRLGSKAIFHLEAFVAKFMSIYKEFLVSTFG

[3] = target: T2, OsRFC3 Δ1–245 (rice (Oryza sativa)) (UniProt Q6YZ54)
T2 sequence: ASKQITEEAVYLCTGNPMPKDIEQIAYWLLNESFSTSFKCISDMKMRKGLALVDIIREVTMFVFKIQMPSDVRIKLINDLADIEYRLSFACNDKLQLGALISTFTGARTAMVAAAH

[4] = target: T3, OsRFC5 with 237 aa of N-terminal removed (rice (Oryza sativa)) (UniProt Q852K3)
T3 sequence: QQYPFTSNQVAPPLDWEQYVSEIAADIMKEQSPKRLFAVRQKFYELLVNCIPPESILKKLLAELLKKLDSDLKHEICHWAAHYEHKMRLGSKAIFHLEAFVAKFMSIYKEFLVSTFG

[5] = target: OsPCNA-YFP^C (rice (Oryza sativa)) (UniProt P17070)
[6] = target: OsRFC2 with a deletion of 100 aa in its C-terminal (rice (Oryza sativa)) (UniProt Q9FXM3)
[7] = target: T4, OsRFC3 Δ242–361 (rice (Oryza sativa)) (UniProt Q6YZ54)
T4 sequence: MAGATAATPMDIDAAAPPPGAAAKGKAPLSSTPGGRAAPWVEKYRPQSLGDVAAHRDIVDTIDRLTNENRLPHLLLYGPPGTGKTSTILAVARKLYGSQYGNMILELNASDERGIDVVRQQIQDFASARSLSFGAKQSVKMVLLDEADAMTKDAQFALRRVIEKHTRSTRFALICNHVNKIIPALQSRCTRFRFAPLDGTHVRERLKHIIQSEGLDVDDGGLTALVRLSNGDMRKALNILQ

[8] = target: T5, OsRFC4 Δ1–222 (rice (Oryza sativa)) (UniProt Q7XRX1)
T5 sequence: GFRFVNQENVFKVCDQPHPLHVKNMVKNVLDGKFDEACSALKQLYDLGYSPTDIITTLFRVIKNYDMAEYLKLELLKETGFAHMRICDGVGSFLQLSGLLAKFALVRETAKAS

[9] = target: T6, OsRFC1 Δ640–1021 (rice (Oryza sativa)) (UniProt Q2R2B4)
T6 sequence: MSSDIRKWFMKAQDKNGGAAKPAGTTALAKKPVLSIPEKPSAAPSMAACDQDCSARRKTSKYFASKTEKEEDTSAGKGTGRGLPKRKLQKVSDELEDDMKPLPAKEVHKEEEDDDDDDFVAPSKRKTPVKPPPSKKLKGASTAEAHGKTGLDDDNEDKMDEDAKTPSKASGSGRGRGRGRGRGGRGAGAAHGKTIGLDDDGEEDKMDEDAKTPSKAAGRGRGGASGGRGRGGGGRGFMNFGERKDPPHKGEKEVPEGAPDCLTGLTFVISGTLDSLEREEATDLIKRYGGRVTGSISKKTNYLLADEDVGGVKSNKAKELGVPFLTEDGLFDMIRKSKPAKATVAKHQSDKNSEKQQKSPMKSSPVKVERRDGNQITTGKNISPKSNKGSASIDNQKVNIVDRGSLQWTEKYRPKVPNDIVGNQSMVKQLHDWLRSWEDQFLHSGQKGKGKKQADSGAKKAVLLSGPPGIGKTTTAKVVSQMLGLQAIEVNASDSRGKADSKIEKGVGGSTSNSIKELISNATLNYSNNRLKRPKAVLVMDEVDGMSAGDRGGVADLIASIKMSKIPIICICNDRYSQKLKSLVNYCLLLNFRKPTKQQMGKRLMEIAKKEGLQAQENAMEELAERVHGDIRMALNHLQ

[10] = target: T7, OsRFC4 Δ216–335 (rice (Oryza sativa)) (UniProt Q7XRX1)
T7 sequence: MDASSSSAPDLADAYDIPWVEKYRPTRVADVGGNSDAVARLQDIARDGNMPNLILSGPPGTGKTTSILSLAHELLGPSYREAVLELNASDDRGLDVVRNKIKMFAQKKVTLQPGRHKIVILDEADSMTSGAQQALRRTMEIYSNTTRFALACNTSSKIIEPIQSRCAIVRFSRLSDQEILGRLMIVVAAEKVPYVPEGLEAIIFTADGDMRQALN

[11] = target: AtPCNA2-YFP^C (Arabidopsis thaliana) (UniProt Q9ZW35)
[12] = target: AtPCNA1-YFP^C (Arabidopsis thaliana) (UniProt Q9M7Q7)

binding [1] | binding [2] | binding [3] | binding [4] | binding [5] | binding [6] | binding [7] | binding [8] | binding [9] | binding [10] | binding [11] | binding [12] | Substance
no binding | no binding | binds | binds | binds | binds | binds | binds | no binding | binds |  |  | OsPCNA-YFP^C (from UniProt P17070 1-263)
 |  |  |  |  |  |  |  |  |  | binds | binds | AtPCNA1-YFP^C (from UniProt Q9M7Q7 1-263)
